Measured values taken from the supplement of paper PMC3334620.
In all, about 33,000 sequences were measured (“E-score (-0.5 to 0.5)”: median about -0.016, highest 2% from about 0.32 on). This is one part of the list.

target: T1, Stp1 (UniProt B3LFK1); experiment: PBM E-score (8-mer binding enrichment) (E-score (-0.5 to 0.5)); higher = stronger / more preferred TF binding; most listed sequences are background and not binding sites; conditions: protein concentration: 200 nM; construct: GST-full length
T1 sequence: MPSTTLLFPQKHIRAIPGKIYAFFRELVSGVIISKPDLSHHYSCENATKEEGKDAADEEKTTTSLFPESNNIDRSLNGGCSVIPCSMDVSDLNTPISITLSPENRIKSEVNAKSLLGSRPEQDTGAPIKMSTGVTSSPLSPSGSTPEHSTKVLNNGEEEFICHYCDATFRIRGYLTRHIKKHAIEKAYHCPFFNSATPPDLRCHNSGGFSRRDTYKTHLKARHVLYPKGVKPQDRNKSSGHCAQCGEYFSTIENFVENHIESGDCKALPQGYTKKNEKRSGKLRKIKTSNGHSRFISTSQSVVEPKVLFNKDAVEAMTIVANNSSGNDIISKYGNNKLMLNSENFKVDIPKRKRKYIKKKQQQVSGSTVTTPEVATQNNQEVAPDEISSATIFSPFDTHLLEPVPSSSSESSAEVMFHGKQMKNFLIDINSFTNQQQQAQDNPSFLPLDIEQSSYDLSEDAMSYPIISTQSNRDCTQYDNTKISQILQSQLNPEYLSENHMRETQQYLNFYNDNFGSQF
Summary of the method: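 Detection of bound protein used fluorescent anti-GST, with scans normalised by masliner. The proteins were GST-tagged yeast transcription factors applied at about 100-200 nM to universal all-10-mer Agilent arrays made double-stranded by primer extension. Each ungapped eight-base word, pooled with its reverse complement, was scored with an E-score from the Universal PBM Analysis Suite.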

Row | Sequence | PBM E-score
1 | ACACAGAT | 0.082
2 | CCCAGCGA | -0.245
3 | ACGAGTTC | -0.0708
4 | CTACCTTC | -0.105
5 | AGACGGTG | -0.174
6 | CAGCAATG | -0.194
7 | CAAGACAG | -0.19
8 | ACCCGAGC | -0.0235
9 | TGTATCAA | 0.119
10 | AGAACTAT | 0.00711
11 | GAGCTATA | -0.237
12 | CGCCTCCG | -0.0266
13 | AGTTATCA | -0.0234
14 | ATTCTCTG | -0.0624
15 | CGGGAAGA | 0.0988
16 | ATGTTATC | 0.0553
17 | ACAAACTG | -0.167
18 | AGGCGAGG | 0.0357
19 | GGTGTCAC | -0.0371
20 | CTACTGAC | -0.121
21 | ATACCGGG | -0.331
22 | AGTGCTGG | -0.187
23 | GCCAGACA | -0.0817
24 | ATTCAAAT | 0.0748
25 | CTCGCTAA | 0.0204

Row | Sequence | PBM E-score
26 | AGATCGCT | -0.177
27 | TCGACCCA | -0.0414
28 | ATGCATGC | 0.0414
29 | AACGGAAC | 0.164
30 | GACTTGCA | 0.00352
31 | AGCAATAA | -0.127
32 | AGGCAAAT | 0.19
33 | AAAAACAG | 0.0457
34 | ACCCCGCA | 0.0618
35 | AGAGTACA | 0.04
36 | CCTGTTGA | 0.0406
37 | AGACACCA | 0.0272
38 | ATTGGCAC | -0.0493
39 | GATACGGA | 0.285
40 | CTACGGAC | -0.191
41 | GAGCGTTA | 0.0818
42 | GCAAGCCA | -0.0399
43 | GAATATGC | 0.0541
44 | TAAGATCA | 0.0196
45 | AGTTGTAT | 0.136
46 | ATTACGGG | -0.199
47 | ATCGTGCG | 0.233
48 | CGCCTAAG | -0.0196
49 | TCCACAGA | 0.0917
50 | GAACTCCA | -0.0707

Row | Sequence | PBM E-score
51 | CGAACTGA | -0.0172
52 | CGCCACTA | -0.0796
53 | CGGAGACG | 0.0667
54 | AATTATGA | 0.213
55 | GCAGATAA | -0.0115
56 | CCAAGTCG | -0.163
57 | GAGACAGC | -0.0299
58 | CCCACCTC | -0.312
59 | AGCTTACG | -0.0814
60 | TGCCCGCA | -0.00812
61 | CGAAGTCC | -0.168
62 | ATATACGC | -0.00234
63 | GACCCTCA | -0.406
64 | GTATAAGA | 0.0837
65 | GCCGCTGA | 0.118
66 | AATGCTGA | -0.0533
67 | AAATGACT | -0.0516
68 | GCAGGTTA | -0.0966
69 | AAACACAT | 0.117
70 | ATCTGCTC | -0.272
71 | AGGGCCCT | -0.229
72 | TACTGCTA | 0.102
73 | CCCAATAA | 0.0447
74 | ACGAGGGG | -0.254
75 | GCGTTGAC | 0.0699

Row | Sequence | PBM E-score
76 | AGAATAGC | 0.0792
77 | TGGAGCAA | 0.108
78 | ATCCTCGG | 0.00855
79 | AGTCGTAC | 0.0145
80 | ATCAGACG | 0.149
81 | ACTGCGGG | -0.153
82 | AGCAAGGA | -0.283
83 | ACAGGTAG | -0.126
84 | AATGTGAC | 0.00474
85 | GAGCGGAA | 0.141
86 | AGATCCAC | 0.133
87 | AGGACTAA | 0.126
88 | CACGAGGG | -0.253
89 | AGCCATTG | 0.0384
90 | AAAGTCAT | -0.148
91 | AACAACAA | 0.129
92 | CAACGGCC | 0.173
93 | AAGTGTAA | -0.131
94 | ACTCACTG | -0.0685
95 | CAAGTGGG | -0.0429
96 | CACCCGTC | 0.0534
97 | AAACGCGC | 0.0957
98 | CGTGTGCA | 0.131
99 | CTCCGCGC | 0.227
100 | AGGGTCTC | -0.294

Row | Sequence | PBM E-score
101 | CTGCATGC | 0.12
102 | AATAGCCA | 0.00269
103 | AATTAATC | 0.0567
104 | GTTGCAAA | 0.152
105 | CCGACTAA | -0.0857
106 | TCTCGTCA | -0.0502
107 | ATCTATGC | 0.0358
108 | GATCTCAC | -0.126
109 | AAGATCAA | 0.0974
110 | GACACTAA | 0.11
111 | GAGAACTC | -0.154
112 | AAACGCAC | 0.0916
113 | ATCGTACG | 0.186
114 | AACAGCCC | -0.066
115 | CGCGATAG | 0.108
116 | AGTGCCTC | 0.347
117 | TCTGGAAA | 0.086
118 | AGAGAGTA | -0.00773
119 | GCTTATAC | -0.121
120 | CAATGGGC | -0.0628
121 | CCCCTCGA | -0.0768
122 | CCCAGGTA | -0.348
123 | ACGATTCG | 0.113
124 | GGCTTAAC | -0.0345
125 | ATGAGCGG | 0.141

Row | Sequence | PBM E-score
126 | CGTGGAGA | -0.0303
127 | AAGGGATG | -0.316
128 | TCCACCGA | -0.0587
129 | CGCTGCTA | -0.17
130 | GTTGGTAA | 0.173
131 | ACGTCCAA | 0.00531
132 | GAGGCAAC | 0.14
133 | ACCATAAG | 0.017
134 | ATATCTGA | 0.0274
135 | AGACGACA | -0.166
136 | ATGCCGCA | 0.468
137 | ACCTGGAA | 0.0178
138 | CATTCCCA | -0.159
139 | GAGATTGA | 0.0645
140 | CGCACGTA | 0.0928
141 | ACGCCCCC | -0.181
142 | CCCAGCTA | -0.22
143 | GCTCATCC | -0.259
144 | AAACCGCC | 0.123
145 | GACCAAGA | -0.157
146 | CAGACGTA | -0.0614
147 | CAGGGATA | -0.0566
148 | TTCACAAA | 0.0654
149 | GTTGAAGA | -0.0498
150 | CTGCGGTA | 0.0752

Row | Sequence | PBM E-score
151 | ACCATTTA | 0.136
152 | CCAATGCG | -0.0847
153 | GAATATTA | 0.162
154 | GGGCGTAC | -0.134
155 | TTACCTAA | 0.0938
156 | AGGGACAG | -0.282
157 | ACCGCTGG | -0.254
158 | CGCCCAAC | -0.0275
159 | CAATGCGA | -0.0726
160 | ACTTCCAG | -0.163
161 | AGTAGCCG | 0.176
162 | AGAACGTA | 0.0863
163 | AATTAGCG | 0.107
164 | CCCGCGCC | 0.297
165 | TCTCAACA | 0.0271
166 | GAACTCGC | 0.0761
167 | TCATTGCA | 0.105
168 | AGAGTAAT | 0.17
169 | AACAATGA | 0.21
170 | CCCTCCCC | -0.146
171 | ATTCTAAG | 0.126
172 | AATGTCTC | -0.273
